Experimental data: article PMC5062570 (Nature Communications, 2016)

Molecular target: PF-7802-labelled proteins in ARPE-19 cells (Homo sapiens, UniProt P07339)
Settings: pretreatment 2 µM inhibitor, PF-7802 100 nM, ARPE-19 cells

Row | Structure (SMILES) | SILAC result for CatD
1 | C[C@@]1(c2cc(-c3cncnc3)c(F)cc2F)CCSC(N)=N1 [LY2811376, reference compound] | high SILAC ratios for CatD
2 | NC1=N[C@@]2(c3cc(NC(=O)c4ccc(F)cn4)ccc3F)COC[C@H]2CS1 [LY2886721, reference compound] | not significantly distinguishable from DMSO controls
